Experiments:
[1] = system: IL-8 secretion from cystic fibrosis epithelial cell line IB-3; details: running text b63
[2] = system: IL-8 secretion from CF lung epithelial cells; details: cited from earlier work

SMILES: CO[C@H]1C[C@H](O[C@H]2CC[C@@]3(C)[C@H](CC[C@@H]4[C@@H]3CC[C@]3(C)[C@@H](C5=CC(=O)OC5)[C@@H](OC(C)=O)C[C@]43O)C2)O[C@@H](C)[C@@H]1O [Compound I]
- concentration at which spontaneous IL-8 secretion from CF lung epithelial cells is suppressed [1]: 1 to 2 nM

SMILES: CCCn1c(=O)c2[nH]c(C3CCCC3)nc2n(CCC)c1=O [CPX, 1,3-Dipropyl-8-Cyclopentyl xanthine]
- ID50 [2]: 5 µM

SMILES: C=CCn1c(=O)c2[nH]c(C3CCCCC3)nc2n(CC=C)c1=O [DAX]
- ID50 [2]: 0.5 µM

From patent publication US20060234955A1, “Cardiac glycosides to treat cystic fibrosis and other il-8 dependent disorders” (priority 2002, published 2006)
